Laboratory results as given in publication PMC4477613.
Substitutions are numbered along the chain they refer to. Names and notes keep the numbering of the source. Results are given in words; binding and its absence hold for the method and conditions named. In cells and extracts the contact can be indirect. Some binding calls cover weakened binding; strength is not graded here. Values belong to the molecule of their own block, whether it stands above or below them.

By UniProt entry, the sequences of proteins in these tests, tags left out.
UniProt P08238: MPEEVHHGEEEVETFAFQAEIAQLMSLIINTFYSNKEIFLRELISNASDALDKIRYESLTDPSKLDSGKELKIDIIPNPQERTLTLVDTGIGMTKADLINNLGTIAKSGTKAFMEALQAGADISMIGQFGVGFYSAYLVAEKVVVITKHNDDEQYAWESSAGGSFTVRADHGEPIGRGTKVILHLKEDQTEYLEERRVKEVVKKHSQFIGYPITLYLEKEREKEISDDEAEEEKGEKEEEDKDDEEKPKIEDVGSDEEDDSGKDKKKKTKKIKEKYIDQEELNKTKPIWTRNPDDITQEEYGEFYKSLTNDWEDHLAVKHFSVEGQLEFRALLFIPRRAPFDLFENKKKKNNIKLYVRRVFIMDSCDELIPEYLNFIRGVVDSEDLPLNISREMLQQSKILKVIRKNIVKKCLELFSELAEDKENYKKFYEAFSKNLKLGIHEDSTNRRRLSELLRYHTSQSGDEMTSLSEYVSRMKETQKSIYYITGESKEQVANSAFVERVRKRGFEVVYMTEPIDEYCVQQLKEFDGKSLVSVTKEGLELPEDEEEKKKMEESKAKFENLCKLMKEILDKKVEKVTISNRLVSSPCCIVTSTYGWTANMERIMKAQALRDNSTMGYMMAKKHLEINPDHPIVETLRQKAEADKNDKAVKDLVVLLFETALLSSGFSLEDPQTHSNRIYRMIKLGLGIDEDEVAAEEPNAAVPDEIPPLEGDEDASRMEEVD
UniProt P0DMV8: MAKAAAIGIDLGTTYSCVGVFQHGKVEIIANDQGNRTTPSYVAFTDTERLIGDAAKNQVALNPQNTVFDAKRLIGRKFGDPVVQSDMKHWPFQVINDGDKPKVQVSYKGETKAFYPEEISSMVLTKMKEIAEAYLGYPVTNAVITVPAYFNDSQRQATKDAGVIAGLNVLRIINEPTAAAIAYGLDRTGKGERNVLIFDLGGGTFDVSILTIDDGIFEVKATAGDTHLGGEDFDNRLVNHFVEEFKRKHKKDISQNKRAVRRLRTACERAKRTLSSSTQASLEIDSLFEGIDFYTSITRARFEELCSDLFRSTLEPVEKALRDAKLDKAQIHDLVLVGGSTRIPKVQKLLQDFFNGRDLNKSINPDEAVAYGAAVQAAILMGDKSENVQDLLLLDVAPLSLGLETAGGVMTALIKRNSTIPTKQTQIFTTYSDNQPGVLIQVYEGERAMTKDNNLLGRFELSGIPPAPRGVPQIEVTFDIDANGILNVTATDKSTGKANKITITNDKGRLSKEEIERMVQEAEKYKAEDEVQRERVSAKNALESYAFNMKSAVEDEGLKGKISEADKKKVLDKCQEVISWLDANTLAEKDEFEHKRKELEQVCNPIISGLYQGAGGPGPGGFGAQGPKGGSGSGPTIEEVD

Experiments:
[1] = molecular target: T1, N-terminal portion of Gsdma3 (A.A. 1-227) (mouse) (UniProt Q5Y4Y6); assay: co-IP; HEK293T cells transfected with Gsdma3 constructs; co-immunoprecipitation with endogenous chaperones or Tom70, in part reciprocal; in part in the absence or presence of 750 nM radicicol; in part with co-expressed C-Gsdma3
T1 sequence: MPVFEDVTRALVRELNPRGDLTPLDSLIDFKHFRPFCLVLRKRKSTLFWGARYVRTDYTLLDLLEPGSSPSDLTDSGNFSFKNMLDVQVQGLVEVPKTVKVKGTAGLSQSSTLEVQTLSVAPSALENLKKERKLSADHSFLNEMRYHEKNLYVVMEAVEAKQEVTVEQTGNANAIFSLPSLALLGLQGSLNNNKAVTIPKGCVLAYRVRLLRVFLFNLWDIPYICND

[2] = molecular target: T2, Gasdermin A3 Rim3-type mutant (A348T), full length (mouse) (UniProt Q5Y4Y6); assay: as above
T2 sequence: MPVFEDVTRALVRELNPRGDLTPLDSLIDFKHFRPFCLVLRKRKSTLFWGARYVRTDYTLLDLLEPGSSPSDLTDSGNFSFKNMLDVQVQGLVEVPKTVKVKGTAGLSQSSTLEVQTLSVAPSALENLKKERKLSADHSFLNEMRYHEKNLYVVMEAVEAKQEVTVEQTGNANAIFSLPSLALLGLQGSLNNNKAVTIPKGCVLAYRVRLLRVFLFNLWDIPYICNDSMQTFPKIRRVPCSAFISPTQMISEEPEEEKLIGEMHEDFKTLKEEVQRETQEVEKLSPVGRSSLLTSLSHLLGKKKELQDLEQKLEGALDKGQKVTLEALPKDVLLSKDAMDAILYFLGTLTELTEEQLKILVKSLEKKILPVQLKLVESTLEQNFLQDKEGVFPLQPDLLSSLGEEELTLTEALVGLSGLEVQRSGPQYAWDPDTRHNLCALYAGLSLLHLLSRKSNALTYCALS

[3] = molecular target: T1, N-terminal portion of Gsdma3 (A.A. 1-227) (mouse); assay: co-IP; HEK293T cells co-transfected with differently tagged Gsdma3 constructs; whole cell lysates split in half, immunoprecipitated and immunoblotted with tag antibodies (V5, myc, flag)
[4] = molecular target: T3, Gasdermin A3, wild type, full length (mouse) (UniProt Q5Y4Y6); assay: as above
T3 sequence: T2 sequence with T348A

[5] = molecular target: Hsp90β (human (endogenous in HEK293T)) (UniProt P08238); assay: co-IP; HEK293T cells transfected with Gsdma3 constructs; co-immunoprecipitation with endogenous chaperones or Tom70, in part reciprocal; in part in the absence or presence of 750 nM radicicol; in part with co-expressed C-Gsdma3

Molecule: Hsp70 1A (from UniProt P0DMV8 1-641)
binding [1]: binds | binding [2]: binds

Molecule: Hsp90β (from UniProt P08238 1-724)
binding [1]: binds | binding [2]: binds

B1: N-terminal portion of Gsdma3 (A.A. 1-227) (domain or fragment, UniProt Q5Y4Y6 1-227)
chain: T1 sequence
binding [3]: binds | binding [4]: binds | binding [5]: binds

B2: C-terminal portion of Gsdma3 (A.A. 229-464) (domain or fragment, UniProt Q5Y4Y6 229-464)
chain: MQTFPKIRRVPCSAFISPTQMISEEPEEEKLIGEMHEDFKTLKEEVQRETQEVEKLSPVGRSSLLTSLSHLLGKKKELQDLEQKLEGALDKGQKVTLEALPKDVLLSKDAMDAILYFLGALTELTEEQLKILVKSLEKKILPVQLKLVESTLEQNFLQDKEGVFPLQPDLLSSLGEEELTLTEALVGLSGLEVQRSGPQYAWDPDTRHNLCALYAGLSLLHLLSRKSNALTYCALS
binding [3]: binds | binding [4]: no binding

B4: Gasdermin A3, wild type, full length (protein, UniProt Q5Y4Y6 1-464)
chain: T2 sequence with T348A
binding [4]: binds

B6: Tom70 (translocase of outer mitochondrial membrane 70) (receptor, UniProt O94826 1-608)
chain: MAASKPVEAAVVAAAVPSSGSGVGGGGTAGPGTGGLPRWQLALAVGAPLLLGAGAIYLWSRQQRRREARGRGDASGLKRNSERKTPEGRASPAPGSGHPEGPGAHLDMNSLDRAQAAKNKGNKYFKAGKYEQAIQCYTEAISLCPTEKNVDLSTFYQNRAAAFEQLQKWKEVAQDCTKAVELNPKYVKALFRRAKAHEKLDNKKECLEDVTAVCILEGFQNQQSMLLADKVLKLLGKEKAKEKYKNREPLMPSPQFIKSYFSSFTDDIISQPMLKGEKSDEDKDKEGEALEVKENSGYLKAKQYMEEENYDKIISECSKEIDAEGKYMAEALLLRATFYLLIGNANAAKPDLDKVISLKEANVKLRANALIKRGSMYMQQQQPLLSTQDFNMAADIDPQNADVYHHRGQLKILLDQVEEAVADFDECIRLRPESALAQAQKCFALYRQAYTGNNSSQIQAAMKGFEEVIKKFPRCAEGYALYAQALTDQQQFGKADEMYDKCIDLEPDNATTYVHKGLLQLQWKQDLDRGLELISKAIEIDNKCDFAYETMGTIEVQRGNMEKAIDMFNKAINLAKSEMEMAHLYSLCDAAHAQTEVAKKYGLKPPTL
binding [1]: binds

Results, then the molecule that gave them:

binding [1]: binds
Molecule: Stress-induced-phosphoprotein 1 (from UniProt P31948 1-543)

binding [3]: no binding
B3: C-terminal portion of Gsdma3^Rim3 (A.A. 229-464, A348T) (domain or fragment, UniProt Q5Y4Y6 229-464)
chain: B2 chain with A120T

binding [4]: binds
B5: Gasdermin A3 Rim3-type mutant (A348T), full length (protein, UniProt Q5Y4Y6 1-464)
chain: T2 sequence

binding [1]: binds
B7: TNF receptor-associated protein 1 (protein, UniProt Q12931 60-704)
chain: STQTAEDKEEPLHSIISSTESVQGSTSKHEFQAETKKLLDIVARSLYSEKEVFIRELISNASDALEKLRHKLVSDGQALPEMEIHLQTNAEKGTITIQDTGIGMTQEELVSNLGTIARSGSKAFLDALQNQAEASSKIIGQFGVGFYSAFMVADRVEVYSRSAAPGSLGYQWLSDGSGVFEIAEASGVRTGTKIIIHLKSDCKEFSSEARVRDVVTKYSNFVSFPLYLNGRRMNTLQAIWMMDPKDVREWQHEEFYRYVAQAHDKPRYTLHYKTDAPLNIRSIFYVPDMKPSMFDVSRELGSSVALYSRKVLIQTKATDILPKWLRFIRGVVDSEDIPLNLSRELLQESALIRKLRDVLQQRLIKFFIDQSKKDAEKYAKFFEDYGLFMREGIVTATEQEVKEDIAKLLRYESSALPSGQLTSLSEYASRMRAGTRNIYYLCAPNRHLAEHSPYYEAMKKKDTEVLFCFEQFDELTLLHLREFDKKKLISVETDIVVDHYKEEKFEDRSPAAECLSEKETEELMAWMRNVLGSRVTNVKVTLRLDTHPAMVTVLEMGAARHFLRMQQLAKTQEERAQLLQPTLEINPRHALIKKLNQLRASEPGLAQLLVDQIYENAMIAAGLVDDPRAMVGRLNELLVKALERH
